Data reported in FireProtDB (doi:10.1126/science.aai7825).

Details: Escherichia coli (strain K12); pH 7.5; Thermal; Intensity; HEPES 20mM; transition: 2

Substance: RNA polymerase sigma factor RpoS wild type (sequence left out)
- Tm: 44.6 °C
